Measurements: PubChem BioAssay AID2147 (National Center for Advancing Translational Sciences (NCATS), 2009)
The whole screen tested about 230,000 compounds, of which about 3,600 (1.6%) were called active. This list was built around the results that the source calls inconclusive (neither active nor inactive); the mix of calls is not that of the screen. Calls follow the shape of the dose curve; as a rule, active = well fitted inhibition curve with a large enough effect (not every such curve was filed as active); inconclusive = small, poorly fitted or top-dose-only effect, or another doubt; inactive = no such curve, though single readings can be large or run the other way. Potencies of inconclusive entries are doubtful fits and often do not repeat.

biological target: Lysine-specific demethylase 4E (Homo sapiens) (UniProt B2RXH2); test: qHTS Assay for Inhibitors of Human Jumonji Domain Containing 2E (JMJD2E); conditions: JMJD2E catalytic domain, FDH-coupled NADH fluorescence (FDH is formaldehyde dehydrogenase); series mostly up to 57.1 µM; activity change, negative = inhibition: at the top concentration
Also: nearly all actives have a fitted effect of over 50% in size.
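For activity change, negative = inhibition in this document: 0% = wells with enzyme and -100% = buffer wells without enzyme.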
Potency is read from the fitted curve at half-maximal effect; tags tell the direction and shape of the fitted curve.

Sequence of UniProt B2RXH2 (B2RXH2 whole entry, looked up, the tested form may be a part): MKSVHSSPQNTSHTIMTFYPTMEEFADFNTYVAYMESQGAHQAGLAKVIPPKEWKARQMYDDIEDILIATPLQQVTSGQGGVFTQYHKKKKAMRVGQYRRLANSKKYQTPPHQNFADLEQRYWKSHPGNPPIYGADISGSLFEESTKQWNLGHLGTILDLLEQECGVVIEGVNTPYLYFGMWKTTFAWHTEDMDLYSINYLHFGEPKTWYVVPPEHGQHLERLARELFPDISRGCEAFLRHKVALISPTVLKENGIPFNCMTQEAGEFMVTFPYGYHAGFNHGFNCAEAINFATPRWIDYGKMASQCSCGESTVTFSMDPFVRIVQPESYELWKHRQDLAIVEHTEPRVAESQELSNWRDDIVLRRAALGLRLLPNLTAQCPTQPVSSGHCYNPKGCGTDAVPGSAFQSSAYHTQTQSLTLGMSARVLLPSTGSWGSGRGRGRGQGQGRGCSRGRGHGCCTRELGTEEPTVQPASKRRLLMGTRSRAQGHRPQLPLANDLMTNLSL

SMILES	activity change, negative = inhibition	Potency
O=S(=O)(Nc1nnc(-c2ccccc2)s1)c1ccc(Cl)cc1	inactive: 3.16%	–
CCN1CCN(C(=O)c2cc3c(-c4ccc(Cl)cc4)nn(C)c3s2)CC1	–	inconclusive: 35.5 µM [inhibitor, partial curve]
CCCCNc1c(N)n(CC(C)C)c(=O)[nH]c1=O	–	inconclusive: 25.1 µM [inhibitor, partial curve]
OCCC1CN(Cc2c(O)ccc3ccccc23)CCN1CCc1ccccc1 (configuration not stated)	–	inconclusive: 25.1 µM [inhibitor, partial curve]
CCN1CCN(Cc2ccc(NC(=O)c3cc(NC(=O)c4cc(-c5ccc(OC)cc5)n[nH]4)cc(OC)c3)cc2C(F)(F)F)CC1	inactive: -8.83%	–
FC(F)(F)c1cc(Oc2ccc(Cl)cc2)nc(-c2ccccn2)n1	inactive: -2.57%	–
CCc1nc(C)ccc1OCC(=O)N(CC)CC	–	inconclusive: 28.2 µM [inhibitor, single point]
COc1ccc2c(c1)OC(O)(C(F)F)CC2=O (configuration not stated)	–	inconclusive: 35.5 µM [inhibitor, single point]
O=C(/C=C\c1ccccc1)Nc1nccs1	–	inconclusive: 35.5 µM [inhibitor, single point]
CC(C)(C)c1ccc(-c2ncccc2O)cc1	–	inconclusive: 31.6 µM [inhibitor, partial curve]
CCCOc1ccc(C(=O)OCCN(CC)CC)cc1N	inactive: -4.91% [at 25.5 µM]	–
O=C(Nc1ccc2c(c1)C(=O)NC2=O)c1ccc2ncsc2c1	–	inconclusive: 17.8 µM [inhibitor, partial curve]
COC(=O)C(C(C)=O)C1c2ccccc2C=C(C)N1C(=O)OC (configuration not stated)	inactive: -11.1% [at 11.4 µM]	–
S=c1nc(C2CCCCC2)[nH][nH]1	–	inconclusive: 39.8 µM [inhibitor, single point]
CC(=O)c1ccc(NC(=O)Nc2ccncc2)cc1	inactive: -10.7%	–
Cc1ccc(S(=O)(=O)N2CCCC2C(=O)OCc2ccccc2)cc1 (configuration not stated)	inactive: 7.72%	–
COc1ccc(NC(=O)c2cccc(-n3c(C)ccc3C)c2)c(OC)c1	inactive: 0.719%	–
Cc1ccc(CN2CCN(Cc3ccccc3C(F)(F)F)CC2)cc1	–	inconclusive: 31.6 µM [inhibitor, single point]
COc1ccccc1C(=O)Nc1nnc(-c2ccco2)s1	–	inconclusive: 25.1 µM [inhibitor, partial curve]
CCOc1ccc(C)cc1-n1nc2ccccc2n1	–	inconclusive: 35.5 µM [inhibitor, single point]
O=C(Cc1ccccc1)NCC1CCCO1 (configuration not stated)	inactive: -8.85%	–
Cc1cc(C)c2c(N)c3cccc(C)c3nc2n1	–	inconclusive: 28.2 µM [inhibitor, partial curve]
